The other results are listed elsewhere or left out. Antibody binding of pooled human sera (four to six donors per pool; dilution not stated) to peptides of the Trypanosoma cruzi antigen TSSA on microarrays. Quantile-normalised fluorescence in arbitrary units, mean of duplicate arrays; higher = more binding. No active / inactive call. The uninfected pools are read here as the healthy donors of the same country. The strongest signals lie near the top of the scale (about 60,000).
The sequences below were run on pooled sera of chronic Chagas disease patients, Brazil (assay: antibody binding signal (normalised fluorescence) (arbitrary fluorescence units); higher = stronger serum antibody binding to peptide).
Description: (§1)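 Microarray of 15-residue peptides over residues 30-55 of Trypanosoma cruzi TSSAII, each with 1 to 10 substitutions at naturally variable positions, probed with one serum pool per country.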

Sequence | antibody binding signal
PSGKDKKTAAGETPS | 3340
DKKTATGGAPSPSGA | 585
TDKKAAAGGTPSQPG | 274
GTDNKAATGETPSQS | 36700
KAATGGTPSQPGASS | 590
EKKTAAGGAPSPSGA | 212
KENKAATGEAPSQSG | 35400
PSGTEKKAATGEAPS | 22400
NKTATGEAPSPSGAS | 18100
SGTEKKAATGEAPSQ | 30000
PSGKDNKAATGEAPS | 29300
PSGTDNKAAAGGAPS | 45800
GTDNKTATGGAPSQS | 29500
PSGKEKKPATGETPS | 19100
TENKAAAGETPSQPG | 38300
GTENKPATGGTPSQP | 20500
TDKKAATGGTPSPSG | 342
NKTAAGEAPSQSGAS | 15400
TEKKTATGETPSPSG | 1030
GTDNKTATGGTPSQP | 27400

Sequence | antibody binding signal
TPPSGKENKAAAGEA | 2870
GKENKTAAGGAPSQP | 4260
GTEKKAAAGGTPSQS | 207
KDNKAAAGEAPSPSG | 9740
DKKPAAGEAPSPPGA | 18500
GKDNKTAAGETPSPP | 1120
PSGTDNKAAAGETPS | 43300
EKKTAAGGAPSPPGA | 502
KDNKPATGEAPSQPG | 51700
SGTDKKAATGETPSQ | 17900
STPPSGTDNKPAAGG | 49800
EKKPATGGAPSQPGA | 15000
TDKKAATGETPSQPG | 33600
TPPSGKDNKTATGGT | 1940
NKPATGEAPSPSGAS | 48400
TPPSGTDNKAATGEA | 43200
TDNKAATGGTPSPSG | 358
DKKPATGGTPSPSGA | 445
TPPSGKDKKTAAGET | 1390
DKKTAAGETPSPSGA | 276

Each sequence was assayed on pooled sera of chronic Chagas disease patients, Colombia in the same assay as above.
Description: as §1

Sequence | antibody binding signal
PSGKDKKTAAGETPS | 7100
DKKTATGGAPSPSGA | 3800
TDKKAAAGGTPSQPG | 6580
GTDNKAATGETPSQS | 211
KAATGGTPSQPGASS | 882
EKKTAAGGAPSPSGA | 7000
KENKAATGEAPSQSG | 237
PSGTEKKAATGEAPS | 1060
NKTATGEAPSPSGAS | 191
SGTEKKAATGEAPSQ | 293
PSGKDNKAATGEAPS | 2130
PSGTDNKAAAGGAPS | 2510
GTDNKTATGGAPSQS | 984
PSGKEKKPATGETPS | 4820
TENKAAAGETPSQPG | 281
GTENKPATGGTPSQP | 2060
TDKKAATGGTPSPSG | 2190
NKTAAGEAPSQSGAS | 273
TEKKTATGETPSPSG | 421
GTDNKTATGGTPSQP | 2430

Sequence | antibody binding signal
TPPSGKENKAAAGEA | 461
GKENKTAAGGAPSQP | 4530
GTEKKAAAGGTPSQS | 4180
KDNKAAAGEAPSPSG | 194
DKKPAAGEAPSPPGA | 212
GKDNKTAAGETPSPP | 3570
PSGTDNKAAAGETPS | 559
EKKTAAGGAPSPPGA | 7680
KDNKPATGEAPSQPG | 330
SGTDKKAATGETPSQ | 2180
STPPSGTDNKPAAGG | 3290
EKKPATGGAPSQPGA | 1730
TDKKAATGETPSQPG | 273
TPPSGKDNKTATGGT | 1970
NKPATGEAPSPSGAS | 259
TPPSGTDNKAATGEA | 915
TDNKAATGGTPSPSG | 284
DKKPATGGTPSPSGA | 3280
TPPSGKDKKTAAGET | 532
DKKTAAGETPSPSGA | 396

The sequences below were run on pooled sera of chronic Chagas disease patients, Mexico in the same assay as above.
Description: as §1

Sequence | antibody binding signal
PSGKDKKTAAGETPS | 6470
DKKTATGGAPSPSGA | 753
TDKKAAAGGTPSQPG | 422
GTDNKAATGETPSQS | 218
KAATGGTPSQPGASS | 277
EKKTAAGGAPSPSGA | 719
KENKAATGEAPSQSG | 294
PSGTEKKAATGEAPS | 1350
NKTATGEAPSPSGAS | 584
SGTEKKAATGEAPSQ | 454
PSGKDNKAATGEAPS | 2720
PSGTDNKAAAGGAPS | 2110
GTDNKTATGGAPSQS | 881
PSGKEKKPATGETPS | 6310
TENKAAAGETPSQPG | 201
GTENKPATGGTPSQP | 3190
TDKKAATGGTPSPSG | 625
NKTAAGEAPSQSGAS | 804
TEKKTATGETPSPSG | 399
GTDNKTATGGTPSQP | 419

Sequence | antibody binding signal
TPPSGKENKAAAGEA | 3410
GKENKTAAGGAPSQP | 2220
GTEKKAAAGGTPSQS | 550
KDNKAAAGEAPSPSG | 160
DKKPAAGEAPSPPGA | 256
GKDNKTAAGETPSPP | 2360
PSGTDNKAAAGETPS | 322
EKKTAAGGAPSPPGA | 767
KDNKPATGEAPSQPG | 201
SGTDKKAATGETPSQ | 307
STPPSGTDNKPAAGG | 15300
EKKPATGGAPSQPGA | 974
TDKKAATGETPSQPG | 217
TPPSGKDNKTATGGT | 19900
NKPATGEAPSPSGAS | 338
TPPSGTDNKAATGEA | 4820
TDNKAATGGTPSPSG | 388
DKKPATGGTPSPSGA | 915
TPPSGKDKKTAAGET | 38800
DKKTAAGETPSPSGA | 391
